# The whole screen tested about 280,000 compounds, of which about 1,100 (0.39%) were called active. This list was built around the results that the source calls inconclusive (neither active nor inactive); the mix of calls is not that of the screen. Calls follow the shape of the dose curve; as a rule, active = well fitted inhibition curve with a large enough effect; inconclusive = small, poorly fitted or top-dose-only effect, or effect the other way; inactive = flat fitted curve, though single readings scatter. Potencies of inconclusive entries are left out as doubtful fits.
# Biological target: Microtubule-associated protein tau (Homo sapiens) (UniProt P10636)
# Test: qHTS for Inhibitors of Tau Fibril Formation, Fluorescence Polarization; also: nearly all actives have a fitted effect of over 55% in size
# Conditions: K18 P301L tau heparin fibrillization, Alexa594 FP, 6 h; series mostly up to 57.7 µM
# Procedure, shortened: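 Read-out: fluorescence polarization of Alexa 594-labeled tau (0.24 uM), 555 nm excitation, 632 nm emission. Mixtures held 15 uM unlabeled K18 P301L, compound and 20 uM heparin, pH 7 acetate buffer, incubated 6 hr at 37 C.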
# Potency is read from the fitted curve at half-maximal effect; tags tell the direction and shape of the fitted curve.
# Chain of UniProt P10636 (P10636 whole entry, looked up): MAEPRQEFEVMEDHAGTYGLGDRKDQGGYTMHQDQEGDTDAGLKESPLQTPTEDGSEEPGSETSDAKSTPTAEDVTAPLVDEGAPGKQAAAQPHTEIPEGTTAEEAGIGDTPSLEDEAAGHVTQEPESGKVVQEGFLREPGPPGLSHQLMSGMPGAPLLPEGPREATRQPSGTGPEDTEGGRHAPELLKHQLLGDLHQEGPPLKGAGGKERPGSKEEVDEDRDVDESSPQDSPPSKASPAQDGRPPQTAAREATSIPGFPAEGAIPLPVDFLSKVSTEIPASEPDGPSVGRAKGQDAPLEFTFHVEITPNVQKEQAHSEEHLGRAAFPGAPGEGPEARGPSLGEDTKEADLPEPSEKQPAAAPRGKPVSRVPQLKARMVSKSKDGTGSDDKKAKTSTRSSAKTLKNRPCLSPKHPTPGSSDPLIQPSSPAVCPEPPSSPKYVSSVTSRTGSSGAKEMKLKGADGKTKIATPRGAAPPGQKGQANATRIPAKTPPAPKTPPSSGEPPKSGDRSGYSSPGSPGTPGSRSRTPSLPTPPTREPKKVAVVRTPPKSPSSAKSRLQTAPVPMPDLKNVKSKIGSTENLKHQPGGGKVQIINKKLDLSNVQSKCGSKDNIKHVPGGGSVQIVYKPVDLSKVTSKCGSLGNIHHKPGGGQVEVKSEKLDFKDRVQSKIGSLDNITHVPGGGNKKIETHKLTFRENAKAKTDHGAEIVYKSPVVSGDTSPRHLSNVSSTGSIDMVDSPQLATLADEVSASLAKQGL
row,Structure (SMILES),Potency
1,CCN(CC)S(=O)(=O)c1ccc2c(c1)N(CC(=O)Nc1c(C)cccc1C)C(=O)C1CCCN21 (configuration not stated),inactive
2,O=c1c2ccccc2c(C=Nc2ccccc2O)c(O)n1-c1nccs1,"inconclusive [inhibitor, single point]"
3,CC[C@H](C)N(C)C(=O)c1cc2ccccc2c(-c2ccccc2Cl)n1,inactive
4,Cc1ccccc1N1C(=O)C(Cl)=C(N2CCCCCC2)C1=O,"inconclusive [inhibitor, single point]"
5,COC(=O)Nc1cc(C(F)(F)F)ccc1N1CCN(c2ccccc2)CC1,"inconclusive [inhibitor, single point]"
6,CCOc1ccc(NC(=O)CSc2oc(-c3ccco3)nc2S(=O)(=O)c2ccccc2)cc1,"inconclusive [inhibitor, partial curve]"
7,COc1ccc(C(=O)/C=C/c2cccs2)c(OC(=O)c2cccc([N+](=O)[O-])c2)c1,inactive
8,Nc1ccc(C(=O)OCC(=O)N2c3ccccc3Sc3ccccc32)cc1[N+](=O)[O-],"inconclusive [inhibitor, single point]"
9,CC(=O)Nc1ccc(N=Cc2c(O)c(C(=O)Nc3ccccc3)cc3ccccc23)cc1,"inconclusive [inhibitor, partial curve]"
10,CCN(CC)CC(=O)NCc1cc(-c2ccc(OC)cc2)no1,inactive
11,CCN1CCSc2ccc(C(=O)NCc3cccc(Br)c3)cc21,"inconclusive [activator, partial curve, poor fit]"
12,CN(C)c1ccc(/C=C2\N=C(c3ccc(Cl)c([N+](=O)[O-])c3)NC2=O)cc1,inactive
13,CC(C)C1Cc2c(sc3[nH]c(=S)n(Cc4ccccc4)c(=O)c23)CO1 (configuration not stated),inactive
14,CCN(CC)C(=O)c1oc2ccc(S(=O)(=O)N3CCCCCC3)cc2c1C,"inconclusive [activator, single point]"
15,CN1CCN(C2=C(Cl)C(=O)N(c3ccc(Cl)cc3)C2=O)CC1,"inconclusive [inhibitor, partial curve, poor fit]"
16,CNC(=S)N=Nc1c(O)[nH]c2ccc(C(C)C)cc12,inactive
17,COc1cccc(CNC(=O)c2ccc(-n3c(C)cc4c3CCCC4)cc2)c1,"inconclusive [inhibitor, full curve, poor fit]"
18,O=C(Nc1ccccc1-c1ccccc1)c1ccc(NC(=O)c2ccco2)cc1,"inconclusive [inhibitor, single point]"
19,O=C(NCC1CCN(Cc2cccc(Cl)c2)CC1)Nc1ccc(F)c(Cl)c1,"inconclusive [inhibitor, partial curve]"
20,O=C(N1CCN(c2cccc(Cl)c2)CC1)C1(c2cccs2)CCOCC1,"inconclusive [inhibitor, single point]"
21,COC(=O)[C@H]1C(OC)[C@@H](OC(=O)c2cc(OC)c(OC)c(OC)c2)C[C@@H]2CN3CCc4c([nH]c5cc(OC)ccc45)[C@H]3C[C@H]21 (some centres not stated),"inconclusive [inhibitor, single point]"

row,Structure (SMILES),Potency
1,O=C(NCC1CCCO1)C(c1ccncc1)N(Cc1ccc(F)cc1)C(=O)CN1C(=O)c2ccccc2S1(=O)=O (configuration not stated),inactive
2,CCOC(=O)c1c(-c2ccccc2)csc1NC(=O)CSc1nc(N)cc(N)n1,"inconclusive [inhibitor, single point]"
3,CCc1cccc(NC(=O)Nc2ccc3c(c2)OCO3)c1,"inconclusive [activator, full curve]"
4,Cc1ccc(-c2csc3ncnc(Sc4nnc(CN5CCCCCC5=O)o4)c23)cc1,"inconclusive [activator, single point]"
5,CCOc1ccc(OCC)c(NC(=O)C2CCN(S(=O)(=O)c3ccc4c(c3)CC(C)N4C(C)=O)CC2)c1 (configuration not stated),"inconclusive [activator, partial curve]"
6,O=C(NC1(C(F)(F)F)NC(=O)N(c2ccc(F)cc2)C1=O)c1cccs1 (configuration not stated),"inconclusive [inhibitor, single point]"
7,O=C(NC(=S)NCc1ccc(-c2nc3ccccc3s2)cc1)c1ccco1,"inconclusive [inhibitor, partial curve]"
8,NS(=O)(=O)c1ccc(CCNC(=O)c2cc(-c3ccccn3)nc3ccc(Br)cc23)cc1,"inconclusive [inhibitor, single point]"
9,C[C@H](O)C(=O)C1=Nc2c(nc(N)[nH]c2=O)NC1,"inconclusive [inhibitor, single point]"
10,COCCNC(=O)Cn1nc(-c2ccc(C)cc2)c2ccccc2c1=O,inactive
11,Cc1cccc(NC(=O)c2ccc(CN3CC(=O)N4CCCCC4C3=O)cc2)c1C (configuration not stated),"inconclusive [inhibitor, single point]"
12,N/C(=N\OC(=O)c1ccc(Cl)c([N+](=O)[O-])c1)c1ccccn1,inactive
13,O=C(Nc1ccc(F)cc1)NC1CCN(Cc2nnnn2Cc2ccco2)CC1,inactive
14,Cn1nnnc1SCC1=C(C(=O)O)N2C(=O)C(NC(=O)C3CC3c3ccccc3)C2SC1 (configuration not stated),"inconclusive [inhibitor, single point]"
15,O=C1C(=C2CCCCC2)SC(=S)N1Cc1ccco1,"inconclusive [inhibitor, single point]"
16,CCN(CC)CCNC(=O)c1[nH]c2ccc(OCc3ccccc3)cc2c1C,inactive
17,COc1ccc(CNc2nc(-c3ccc(Cl)cc3)cc(C(F)(F)F)n2)cc1,"inconclusive [inhibitor, partial curve, poor fit]"
18,CCOC(=O)c1c(/N=C/N(C)C)sc(/C=N/Nc2ccccc2)c1-c1ccccc1Cl,inactive
19,COC(=O)c1cc2occc2n1Cc1c(F)cccc1Cl,"inconclusive [inhibitor, single point]"
20,COc1ccccc1CNC(=O)CSc1nc2nc(C)c(Cc3ccccc3C)c(C)n2n1,inactive
21,Cc1ccc(-c2nnc(Nc3ccc(F)cc3)c3ccccc23)cc1S(=O)(=O)NC(C)C,"inconclusive [inhibitor, single point]"

# — PubChem BioAssay AID1468 (National Center for Advancing Translational Sciences (NCATS), 2008)
